# Some of the results follow.
# Legend:
# Assay in all cases: glycan array binding signal (z-score within array); higher = stronger binding
# Details in all cases: glycan notation: IUPAC condensed, linker removed
# [1] = biological target: Gal(b1-4)GlcNAc(b1-2)[Gal(b1-4)GlcNAc(b1-4)]Man(a1-3)[Fuc(a1-3)[Gal(b1-4)]GlcNAc(b1-2)Man(a1-6)]Man(b1-4)GlcNAc(b1-4)GlcNAc
# How it was run: (§1)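 The binding signal is a Z-score computed within each array. Data were drawn from 3228 arrays in the Consortium for Functional Glycomics database, restricted to those with a known protein sequence. Scores were averaged over arrays of the same protein sequence at different concentrations or buffers, and over linkers, and negative values can be taken as non-binding.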
# [2] = biological target: Gal(b1-4)GlcNAc(b1-2)[Gal(b1-4)GlcNAc(b1-4)]Man(a1-3)[Gal(b1-4)GlcNAc(b1-2)Man(a1-6)]Man(b1-4)GlcNAc(b1-4)GlcNAc
# How it was run: as §1
# [3] = biological target: Gal(b1-4)GlcNAc(b1-2)[Gal(b1-4)GlcNAc(b1-4)]Man(a1-3)[Gal(b1-4)GlcNAc(b1-2)[Gal(b1-4)GlcNAc(b1-6)]Man(a1-6)]Man(b1-4)GlcNAc(b1-4)GlcNAc
# How it was run: as §1
# [4] = biological target: Gal(b1-4)GlcNAc(b1-3)Fuc
# How it was run: as §1
# [5] = biological target: Gal(b1-4)GlcNAc(b1-3)Gal(b1-4)Glc
# How it was run: as §1
# [6] = biological target: Gal(b1-4)GlcNAc(b1-3)Gal(b1-4)GlcNAc(b1-3)Gal(b1-4)Glc
# How it was run: as §1
# [7] = biological target: Gal(b1-4)GlcNAc(b1-3)[Fuc(a1-3)[Gal(b1-4)]GlcNAc(b1-6)]Gal(b1-4)Glc
# How it was run: as §1
# [8] = biological target: Gal(b1-4)GlcNAc(b1-3)[Gal(b1-4)GlcNAc(b1-6)]Gal(b1-4)Glc
# How it was run: as §1
# [9] = biological target: Gal(b1-4)GlcNAc(b1-3)[Gal(b1-4)GlcNAc(b1-6)]Gal(b1-4)GlcNAc(b1-3)Gal(b1-4)Glc
# How it was run: as §1
# [10] = biological target: Gal(b1-4)GlcNAc(b1-3)[Gal(b1-4)GlcNAc(b1-6)]Gal(b1-4)GlcNAc(b1-3)[Gal(b1-4)GlcNAc(b1-6)]Gal(b1-4)GlcNAc(b1-3)Gal(b1-4)Glc
# How it was run: as §1
# [11] = biological target: Gal(b1-4)GlcNAc(b1-3)[Gal(b1-4)GlcNAc(b1-6)]Gal(b1-4)GlcNAc(b1-3)[Gal(b1-4)GlcNAc(b1-6)]Gal(b1-4)GlcNAc(b1-3)[Gal(b1-4)GlcNAc(b1-6)]Gal(b1-4)GlcNAc(b1-3)Gal(b1-4)Glc
# How it was run: as §1
# [12] = biological target: Gal(b1-4)GlcNAc(b1-3)[Gal(b1-4)GlcNAc(b1-6)]Gal(b1-4)GlcNAc(b1-3)[Gal(b1-4)GlcNAc(b1-6)]Gal(b1-4)GlcNAc(b1-3)[Gal(b1-4)GlcNAc(b1-6)]Gal(b1-4)GlcNAc(b1-3)[Gal(b1-4)GlcNAc(b1-6)]Gal(b1-4)GlcNAc(b1-3)Gal(b1-4)Glc
# How it was run: as §1
# [13] = biological target: Gal(b1-6)GalNAc
# How it was run: as §1
# [14] = biological target: Gal3S(b1-3)GalNAc(b1-4)Gal3S(b1-4)Glc
# How it was run: as §1
# [15] = biological target: Gal3S(b1-3)[Fuc(a1-4)]GlcNAc
# How it was run: as §1
# [16] = biological target: Gal3S(b1-3)[Fuc(a1-4)]GlcNAc(b1-3)Gal(b1-4)Glc
# How it was run: as §1
# [17] = biological target: Gal3S(b1-4)Glc
# How it was run: as §1
# [18] = biological target: Gal3S(b1-4)GlcNAc
# How it was run: as §1
# [19] = biological target: Gal3S(b1-4)GlcNAc(b1-3)Gal
# How it was run: as §1
# [20] = biological target: Gal6S(b1-3)[Fuc(a1-4)]GlcNAc(b1-3)Gal(b1-4)Glc
# How it was run: as §1
# [21] = biological target: GalNAc(a1-3)Gal(b1-4)Glc
# How it was run: as §1
# [22] = biological target: GalNAc(a1-3)GalNAc
# How it was run: as §1
# [23] = biological target: GalNAc(b1-4)Gal(b1-4)Glc
# How it was run: as §1
# [24] = biological target: GalNAc(b1-4)Gal3S(b1-4)Glc
# How it was run: as §1
# [25] = biological target: GalNAc(b1-4)[Neu5Ac(a2-6)]Gal(b1-4)Glc
# How it was run: as §1
# [26] = biological target: GalNAc3S(b1-4)Gal3S(b1-4)Glc
# How it was run: as §1
# [27] = biological target: Glc(a1-2)Glc
# How it was run: as §1
# [28] = biological target: Glc(a1-2)Glc(a1-3)Glc(a1-3)Man(a1-2)Man(a1-2)Man(a1-3)[Man(a1-3)[Man(a1-6)]Man(a1-6)]Man(b1-4)GlcNAc
# How it was run: as §1
# [29] = biological target: Glc(a1-3)Glc
# How it was run: as §1
# [30] = biological target: Glc(a1-3)Glc(a1-3)Man(a1-2)Man(a1-2)Man(a1-3)[Man(a1-2)Man(a1-3)[Man(a1-2)Man(a1-6)]Man(a1-6)]Man(b1-4)GlcNAc(b1-4)GlcNAc
# How it was run: as §1
# [31] = biological target: Glc(a1-3)Glc(a1-3)Man(a1-2)Man(a1-2)Man(a1-3)[Man(a1-3)[Man(a1-6)]Man(a1-6)]Man(b1-4)GlcNAc
# How it was run: as §1
# [32] = biological target: Glc(a1-3)Man(a1-2)Man(a1-2)Man(a1-3)[Man(a1-2)Man(a1-3)[Man(a1-2)Man(a1-6)]Man(a1-6)]Man(b1-4)GlcNAc(b1-4)GlcNAc
# How it was run: as §1
# [33] = biological target: Glc(a1-4)Glc
# How it was run: as §1
# [34] = biological target: Glc(a1-4)Glc(a1-4)Glc
# How it was run: as §1
# [35] = biological target: Glc(a1-4)Glc(a1-4)Glc(a1-4)Glc
# How it was run: as §1
# [36] = biological target: Glc(a1-4)Glc(a1-4)Glc(a1-4)Glc(a1-4)Glc
# How it was run: as §1
# [37] = biological target: Glc(a1-4)Glc(a1-4)Glc(a1-4)Glc(a1-4)Glc(a1-4)Glc
# How it was run: as §1
binder,measurement,setting,value
"HysACBM (Streptococcus pneumoniae), Q54873 (protein) KNLVENGDFGQTEDGSSPWTGSKAQGWSAWVDQKNSADASTRVIEAKDGAITISSHEKLRAALHRMVPIEAKKKYKLRFKIKTDNKIGIAKVRIIEESGKDKRLWNSATTSGTKDWQTIEADYSPTLDVDKIKLELFYETGTGTVSFKDIELVEVADQLS",glycan array binding signal (z-score),[1],0.063
same,glycan array binding signal (z-score),[2],-0.091
same,glycan array binding signal (z-score),[3],0.105
same,glycan array binding signal (z-score),[4],0.281
same,glycan array binding signal (z-score),[5],-0.091
same,glycan array binding signal (z-score),[6],-0.091
same,glycan array binding signal (z-score),[7],-0.091
same,glycan array binding signal (z-score),[8],0.137
same,glycan array binding signal (z-score),[9],-0.091
same,glycan array binding signal (z-score),[10],-0.091
same,glycan array binding signal (z-score),[11],0.258
same,glycan array binding signal (z-score),[12],-0.091
same,glycan array binding signal (z-score),[13],-0.064
same,glycan array binding signal (z-score),[14],-0.091
same,glycan array binding signal (z-score),[15],-0.076
same,glycan array binding signal (z-score),[16],0.18
same,glycan array binding signal (z-score),[17],-0.039
same,glycan array binding signal (z-score),[18],-0.091
same,glycan array binding signal (z-score),[19],0.169
same,glycan array binding signal (z-score),[20],-0.084
same,glycan array binding signal (z-score),[21],0.154
same,glycan array binding signal (z-score),[22],-0.091
same,glycan array binding signal (z-score),[23],0.321
same,glycan array binding signal (z-score),[24],-0.076
same,glycan array binding signal (z-score),[25],-0.091
same,glycan array binding signal (z-score),[26],-0.091
same,glycan array binding signal (z-score),[27],-0.091
same,glycan array binding signal (z-score),[28],-0.091
same,glycan array binding signal (z-score),[29],-0.091
same,glycan array binding signal (z-score),[30],-0.091
same,glycan array binding signal (z-score),[31],-0.091
same,glycan array binding signal (z-score),[32],-0.091
same,glycan array binding signal (z-score),[33],-0.091
same,glycan array binding signal (z-score),[34],-0.091
same,glycan array binding signal (z-score),[35],-0.091
same,glycan array binding signal (z-score),[36],-0.091
same,glycan array binding signal (z-score),[37],0.112
